According to the supplement of paper PMC11876631:
± gives the standard deviation of the averaged measurements. Laboratory Escherichia coli strains with one amino-acid change in an essential protein, pooled on minimal glucose agar with carbenicillin or gentamicin at twice the control MIC (plus kanamycin and chloramphenicol for the plasmids), 48 h. Fold change of barcode share against drug-free plates; higher = less susceptible. Active = above 20 in both replicates (the paper's putatively resistant). '<' = one read or none on drug, '>' = one read or none on a drug-free plate. Shares are relative, so most strains fall below 1 when a few take over. Listed are strains with at least 15 reads on both drug-free plates, and hits; most hits rest on fewer reference reads. Replicate rank correlation about 0.5. Edits are read from barcodes.

B1: argA V399Q (protein)
chain: MVKERKTELVEGFRHSVPYINTHRGKTFVIMLGGEAIEHENFSSIVNDIGLLHSLGIRLVVVYGARPQIDANLAAHHHEPLYHKNIRVTDAKTLELVKQAAGTLQLDITARLSMSLNNTPLQGAHINVVSGNFIIAQPLGVDDGVDYCHSGRIRRIDEDAIHRQLDSGAIVLMGPVAVSVTGESFNLTSEEIATQLAIKLKAEKMIGFCSSQGVTNDDGDIVSELFPNEAQARVEAQEEKGDYNSGTVRFLRGAVKACRSGVRRCHLISYQEDGALLQELFSRDGIGTQIVMESAEQIRRATINDIGGILELIRPLEQQGILVRRSREQLEMEIDKFTIIQRDNTTIACAALYPFPEEKIGEMACVAVHPDYRSSSRGEVLLERIAAQAKQSGLSKLFQLTTRSIHWFQERGFTPVDIDLLPESKKQLYNYQRKSKVLMADLG
B2: argA L172A (protein)
chain: MVKERKTELVEGFRHSVPYINTHRGKTFVIMLGGEAIEHENFSSIVNDIGLLHSLGIRLVVVYGARPQIDANLAAHHHEPLYHKNIRVTDAKTLELVKQAAGTLQLDITARLSMSLNNTPLQGAHINVVSGNFIIAQPLGVDDGVDYCHSGRIRRIDEDAIHRQLDSGAIVAMGPVAVSVTGESFNLTSEEIATQLAIKLKAEKMIGFCSSQGVTNDDGDIVSELFPNEAQARVEAQEEKGDYNSGTVRFLRGAVKACRSGVRRCHLISYQEDGALLQELFSRDGIGTQIVMESAEQIRRATINDIGGILELIRPLEQQGILVRRSREQLEMEIDKFTIIQRDNTTIACAALYPFPEEKIGEMACVAVHPDYRSSSRGEVLLERIAAQAKQSGLSKLFVLTTRSIHWFQERGFTPVDIDLLPESKKQLYNYQRKSKVLMADLG
B3: argA V399P (protein)
chain: MVKERKTELVEGFRHSVPYINTHRGKTFVIMLGGEAIEHENFSSIVNDIGLLHSLGIRLVVVYGARPQIDANLAAHHHEPLYHKNIRVTDAKTLELVKQAAGTLQLDITARLSMSLNNTPLQGAHINVVSGNFIIAQPLGVDDGVDYCHSGRIRRIDEDAIHRQLDSGAIVLMGPVAVSVTGESFNLTSEEIATQLAIKLKAEKMIGFCSSQGVTNDDGDIVSELFPNEAQARVEAQEEKGDYNSGTVRFLRGAVKACRSGVRRCHLISYQEDGALLQELFSRDGIGTQIVMESAEQIRRATINDIGGILELIRPLEQQGILVRRSREQLEMEIDKFTIIQRDNTTIACAALYPFPEEKIGEMACVAVHPDYRSSSRGEVLLERIAAQAKQSGLSKLFPLTTRSIHWFQERGFTPVDIDLLPESKKQLYNYQRKSKVLMADLG
B4: fabZ L25A (protein)
chain: MTTNTHTLQIEEILELLPHRFPFLAVDRVLDFEEGRFLRAVKNVSVNEPFFQGHFPGKPIFPGVLILEAMAQATGILAFKSVGKLEPGELYYFAGIDEARFKRPVVPGDQMIMEVTFEKTRRGLTRFKGVALVDGKVVCEATMMCARSREA
B5: fabZ L24Q (protein)
chain: MTTNTHTLQIEEILELLPHRFPFQLVDRVLDFEEGRFLRAVKNVSVNEPFFQGHFPGKPIFPGVLILEAMAQATGILAFKSVGKLEPGELYYFAGIDEARFKRPVVPGDQMIMEVTFEKTRRGLTRFKGVALVDGKVVCEATMMCARSREA
B6: fabZ L25W (protein)
chain: MTTNTHTLQIEEILELLPHRFPFLWVDRVLDFEEGRFLRAVKNVSVNEPFFQGHFPGKPIFPGVLILEAMAQATGILAFKSVGKLEPGELYYFAGIDEARFKRPVVPGDQMIMEVTFEKTRRGLTRFKGVALVDGKVVCEATMMCARSREA
B7: fabZ M144W (protein)
chain: MTTNTHTLQIEEILELLPHRFPFLLVDRVLDFEEGRFLRAVKNVSVNEPFFQGHFPGKPIFPGVLILEAMAQATGILAFKSVGKLEPGELYYFAGIDEARFKRPVVPGDQMIMEVTFEKTRRGLTRFKGVALVDGKVVCEATMWCARSREA
B8: fabZ M144Q (protein)
chain: MTTNTHTLQIEEILELLPHRFPFLLVDRVLDFEEGRFLRAVKNVSVNEPFFQGHFPGKPIFPGVLILEAMAQATGILAFKSVGKLEPGELYYFAGIDEARFKRPVVPGDQMIMEVTFEKTRRGLTRFKGVALVDGKVVCEATMQCARSREA
B9: fabZ V26A (protein)
chain: MTTNTHTLQIEEILELLPHRFPFLLADRVLDFEEGRFLRAVKNVSVNEPFFQGHFPGKPIFPGVLILEAMAQATGILAFKSVGKLEPGELYYFAGIDEARFKRPVVPGDQMIMEVTFEKTRRGLTRFKGVALVDGKVVCEATMMCARSREA
B10: fabZ L25Q (protein)
chain: MTTNTHTLQIEEILELLPHRFPFLQVDRVLDFEEGRFLRAVKNVSVNEPFFQGHFPGKPIFPGVLILEAMAQATGILAFKSVGKLEPGELYYFAGIDEARFKRPVVPGDQMIMEVTFEKTRRGLTRFKGVALVDGKVVCEATMMCARSREA
B11: fabZ F23Q (protein)
chain: MTTNTHTLQIEEILELLPHRFPQLLVDRVLDFEEGRFLRAVKNVSVNEPFFQGHFPGKPIFPGVLILEAMAQATGILAFKSVGKLEPGELYYFAGIDEARFKRPVVPGDQMIMEVTFEKTRRGLTRFKGVALVDGKVVCEATMMCARSREA
B12: fabZ M144P (protein)
chain: MTTNTHTLQIEEILELLPHRFPFLLVDRVLDFEEGRFLRAVKNVSVNEPFFQGHFPGKPIFPGVLILEAMAQATGILAFKSVGKLEPGELYYFAGIDEARFKRPVVPGDQMIMEVTFEKTRRGLTRFKGVALVDGKVVCEATMPCARSREA
B13: fabZ L67A (protein)
chain: MTTNTHTLQIEEILELLPHRFPFLLVDRVLDFEEGRFLRAVKNVSVNEPFFQGHFPGKPIFPGVLIAEAMAQATGILAFKSVGKLEPGELYYFAGIDEARFKRPVVPGDQMIMEVTFEKTRRGLTRFKGVALVDGKVVCEATMMCARSREA
B14: fabZ M113A (protein)
chain: MTTNTHTLQIEEILELLPHRFPFLLVDRVLDFEEGRFLRAVKNVSVNEPFFQGHFPGKPIFPGVLILEAMAQATGILAFKSVGKLEPGELYYFAGIDEARFKRPVVPGDQMIAEVTFEKTRRGLTRFKGVALVDGKVVCEATMMCARSREA
B15: fabZ L24A (protein)
chain: MTTNTHTLQIEEILELLPHRFPFALVDRVLDFEEGRFLRAVKNVSVNEPFFQGHFPGKPIFPGVLILEAMAQATGILAFKSVGKLEPGELYYFAGIDEARFKRPVVPGDQMIMEVTFEKTRRGLTRFKGVALVDGKVVCEATMMCARSREA
B16: fabZ F23A (protein)
chain: MTTNTHTLQIEEILELLPHRFPALLVDRVLDFEEGRFLRAVKNVSVNEPFFQGHFPGKPIFPGVLILEAMAQATGILAFKSVGKLEPGELYYFAGIDEARFKRPVVPGDQMIMEVTFEKTRRGLTRFKGVALVDGKVVCEATMMCARSREA
B17: fabZ M144A (protein)
chain: MTTNTHTLQIEEILELLPHRFPFLLVDRVLDFEEGRFLRAVKNVSVNEPFFQGHFPGKPIFPGVLILEAMAQATGILAFKSVGKLEPGELYYFAGIDEARFKRPVVPGDQMIMEVTFEKTRRGLTRFKGVALVDGKVVCEATMACARSREA
B18: fbaA V105A (protein)
chain: MSKIFDFVKPGVITGDDVQKVFQVAKENNFALPAVNCVGTDSINAVLETAAKVKAPVIVQFSNGGASFIAGKGVKSDVPQGAAILGAISGAHHVHQMAEHYGVPAILHTDHCAKKLLPWIDGLLDAGEKHFAATGKPLFSSHMIDLSEESLQENIEICSKYLERMSKIGMTLEIELGCTGGEEDGVDNSHMDASALYTQPEDVDYAYTELSKISPRFTIAASFGNVHGVYKPGNVVLTPTILRDSQEYVSKKHNLPHNSLNFVFHGGSGSTAQEIKDSVSYGVVKMNIDTDTQWATWEGVLNYYKANEAYLQGQLGNPKGEDQPNKKYYDPRVWLRAGQTSMIARLEKAFQELNAIDVL
B19: fbaA I106Q (protein)
chain: MSKIFDFVKPGVITGDDVQKVFQVAKENNFALPAVNCVGTDSINAVLETAAKVKAPVIVQFSNGGASFIAGKGVKSDVPQGAAILGAISGAHHVHQMAEHYGVPVQLHTDHCAKKLLPWIDGLLDAGEKHFAATGKPLFSSHMIDLSEESLQENIEICSKYLERMSKIGMTLEIELGCTGGEEDGVDNSHMDASALYTQPEDVDYAYTELSKISPRFTIAASFGNVHGVYKPGNVVLTPTILRDSQEYVSKKHNLPHNSLNFVFHGGSGSTAQEIKDSVSYGVVKMNIDTDTQWATWEGVLNYYKANEAYLQGQLGNPKGEDQPNKKYYDPRVWLRAGQTSMIARLEKAFQELNAIDVL

Biological target: Escherichia coli (laboratory strain)
Assay: barcode share on antibiotic plates over drug-free plates; higher = less susceptible
Method: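 A pool of E. coli strains, each edited to carry one amino-acid change in an essential protein, was grown for 48 h on minimal glucose agar with or without antibiotic; strain barcodes were sequenced; mean of two replicates.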

[1] = antibiotic: carbenicillin, 2× MIC (3.1 µg/mL)
[2] = antibiotic: gentamicin, 2× MIC (MIC 0.45 µg/mL)

Row | Protein | fold change of barcode share [1] | fold change of barcode share [2]
1 | B1 | 0.413 ± 0.18 | –
2 | B2 | 0.682 ± 0.34 | 0.0135 ± 0.0054
3 | B3 | 0.37 ± 0.17 | –
4 | B4 | 0.424 ± 0.18 | < 0.00956
5 | B5 | 1.08 ± 1.2 | < 0.0107
6 | B6 | 1.09 ± 0.3 | 0.00915 ± 0.0069
7 | B7 | 0.683 ± 0.34 | 0.00603 ± 0.003
8 | B8 | 0.2755 ± 0.0011 | 0.0125 ± 0.0069
9 | B9 | 0.488 ± 0.43 | 0.00759 ± 0.0039
10 | B10 | 0.158 ± 0.072 | < 0.00609
11 | B11 | 1.57 ± 1.9 | < 0.0147
12 | B12 | 0.324 ± 0.095 | < 0.0141
13 | B13 | 0.631 ± 0.19 | 0.00718 ± 0.0044
14 | B14 | 0.397 ± 0.17 | 0.012 ± 0.011
15 | B15 | 0.247 ± 0.017 | 0.00756 ± 0.0021
16 | B16 | 0.163 ± 0.02 | < 0.011
17 | B17 | 0.374 ± 0.018 | < 0.0156
18 | B18 | 0.207 ± 0.1 | 0.194 ± 0.27
19 | B19 | 0.484 ± 0.032 | –
